# Source: the supplement of paper PMC4967469
# The IC50 comes from the fitted curve, where viability falls to half of the control; a limit (>, <) means that the fit lies beyond the doses tested. AUC is the area under the same curve over the 256-fold range up to the top dose, as a fraction: 1 means no effect, lower means more sensitive. For some assays here: Any top dose called inferred comes from the curve model; the source does not state it. For some assays here: Drugs with an entry number were screened twice under separate entries, and the two screens often disagree.
# Legend:
# Experiment in all cases: Viability of human cancer cell lines after 72 h of drug (GDSC screen)
# Thapsigargin = compound: C/C=C(/C)C(=O)O[C@H]1C(C)=C2[C@H]([C@@H]1OC(=O)CCCCCCC)[C@@](C)(OC(C)=O)C[C@H](OC(=O)CCC)[C@@]1(O)[C@H]2OC(=O)[C@@]1(C)O [Thapsigargin]; conditions: top dose 0.512 µM; top dose inferred
# Experimental: (§1)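 Human cancer cell lines in 384-well plates, medium with 10% serum, drug for 72 h over a 256-fold dose range (nine 2-fold or five 4-fold steps up to the top dose). Adherent lines were fixed and stained with the nucleic acid dye Syto60, suspension lines read with resazurin; signal relative to control wells, capped at 0 and 100%. One two-parameter sigmoid per drug and line, fitted in a mixed model over all curves with the slope shared within a line.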
# Cytarabine = compound: Nc1ccn([C@@H]2O[C@H](CO)[C@@H](O)[C@@H]2O)c(=O)n1 [Cytarabine]; conditions: top dose 2 µM
# Experimental: as §1
# (5Z)-7-Oxozeaenol = compound: COc1cc(O)c2c(c1)/C=C/C[C@H](O)[C@H](O)C(=O)/C=C\C[C@H](C)OC2=O [(5Z)-7-Oxozeaenol]; conditions: top dose 10 µM; top dose inferred
# Experimental: as §1
# GSK269962A = compound: CCn1c(-c2nonc2N)nc2cnc(Oc3cccc(NC(=O)c4ccc(OCCN5CCOCC5)cc4)c3)cc21 [GSK269962A]; conditions: top dose 5 µM; screen: GDSC drug entry 1192; top dose inferred
# Experimental: as §1
# CHIR-99021 = compound: Cc1cnc(-c2cnc(NCCNc3ccc(C#N)cn3)nc2-c2ccc(Cl)cc2Cl)[nH]1 [CHIR-99021]
# Experimental: as §1
# ABT-888 = compound: C[C@]1(c2nc3c(C(N)=O)cccc3[nH]2)CCCN1 [ABT-888]; conditions: top dose 5 µM; top dose inferred
# Experimental: as §1
# CP466722 = compound: COc1cc2ncnc(-n3nc(-c4ccccn4)nc3N)c2cc1OC [CP466722]; conditions: top dose 16 µM; top dose inferred
# Experimental: as §1
# KU-55933 = compound: O=c1cc(-c2cccc3c2Sc2ccccc2S3)oc(N2CCOCC2)c1 [KU-55933]; conditions: top dose 10 µM
# Experimental: as §1
# QL-X-138 = compound: C=CC(=O)Nc1cc(-n2c(=O)ccc3cnc4ccc(-c5cn[nH]c5)cc4c32)ccc1C [QL-X-138]; conditions: top dose 10.24 µM; top dose inferred
# Experimental: as §1
# Zibotentan = compound: COc1nc(C)cnc1NS(=O)(=O)c1cccnc1-c1ccc(-c2nnco2)cc1 [Zibotentan]; conditions: top dose 20 µM; top dose inferred
# Experimental: as §1
# MPS-1-IN-1 = compound: COc1cc(N2CCC(O)CC2)ccc1Nc1cc(Nc2ccccc2S(=O)(=O)C(C)C)c2cc[nH]c2n1 [MPS-1-IN-1]; conditions: top dose 20 µM; top dose inferred
# Experimental: as §1
# ABT-869 = compound: Cc1ccc(F)c(NC(=O)Nc2ccc(-c3cccc4[nH]nc(N)c34)cc2)c1 [ABT-869]; conditions: top dose 1.024 µM; top dose inferred
# Experimental: as §1
# [1] = top dose 2.56 µM, screen: GDSC drug entry 154
# [2] = top dose 10 µM, screen: GDSC drug entry 1241, top dose inferred
Cell Line,AUC (Thapsigargin),IC50 (Thapsigargin),AUC (Cytarabine),IC50 (Cytarabine),AUC ((5Z)-7-Oxozeaenol),IC50 ((5Z)-7-Oxozeaenol),AUC (GSK269962A),IC50 (GSK269962A),AUC (CHIR-99021; [1]),IC50 (CHIR-99021; [1]),AUC (CHIR-99021; [2]),IC50 (CHIR-99021; [2]),AUC (ABT-888),IC50 (ABT-888),AUC (CP466722),IC50 (CP466722),AUC (KU-55933),IC50 (KU-55933),AUC (QL-X-138),IC50 (QL-X-138),AUC (Zibotentan),IC50 (Zibotentan),AUC (MPS-1-IN-1),IC50 (MPS-1-IN-1),AUC (ABT-869),IC50 (ABT-869)
"EGI-1 (biliary tract, adherent)",0.392,0.0148 µM,0.795,1.27 µM,0.497,0.61 µM,0.98,> 5 µM,0.97,> 2.56 µM,0.961,> 10 µM,0.943,> 5 µM,0.796,10.2 µM,0.982,> 10 µM,0.796,6.5 µM,0.978,> 20 µM,0.894,> 20 µM,0.977,> 1.02 µM
"EN (endometrium, adherent)",0.585,0.0581 µM,0.947,> 2 µM,0.949,> 10 µM,0.861,> 5 µM,0.976,> 2.56 µM,0.979,> 10 µM,0.983,> 5 µM,0.839,15.4 µM,0.958,> 10 µM,0.729,3.46 µM,0.984,> 20 µM,0.862,> 20 µM,0.972,> 1.02 µM
"ESS-1 (endometrium, adherent)",0.112,0.00216 µM,0.925,> 2 µM,0.317,0.205 µM,0.939,> 5 µM,0.964,> 2.56 µM,0.936,> 10 µM,0.99,> 5 µM,0.858,11 µM,0.964,> 10 µM,0.825,5.34 µM,0.988,> 20 µM,0.99,> 20 µM,0.987,> 1.02 µM
"EW-7 (Ewing sarcoma, semi-adherent)",0.236,0.00624 µM,0.706,0.436 µM,0.799,4.12 µM,0.867,3.6 µM,0.99,> 2.56 µM,0.972,> 10 µM,0.985,> 5 µM,0.586,1.67 µM,0.944,> 10 µM,0.298,0.188 µM,0.981,> 20 µM,0.669,3.45 µM,0.98,> 1.02 µM
"FTC-133 (thyroid, adherent)",0.95,> 0.512 µM,0.81,1.18 µM,0.746,3.45 µM,0.782,2.31 µM,0.977,> 2.56 µM,0.985,> 10 µM,0.969,> 5 µM,0.986,> 16 µM,0.98,> 10 µM,0.986,> 10.2 µM,0.986,> 20 µM,0.983,> 20 µM,0.986,> 1.02 µM
"FU97 (stomach, adherent)",0.175,0.0032 µM,0.941,> 2 µM,0.648,1.63 µM,0.606,0.618 µM,0.986,> 2.56 µM,0.966,> 10 µM,0.979,> 5 µM,0.887,> 16 µM,0.935,> 10 µM,0.873,> 10.2 µM,0.986,> 20 µM,0.941,> 20 µM,0.985,> 1.02 µM
"FU-OV-1 (ovary, adherent)",0.576,0.0552 µM,0.894,> 2 µM,0.717,3.17 µM,0.917,> 5 µM,0.969,> 2.56 µM,0.954,> 10 µM,0.98,> 5 µM,0.823,13.6 µM,0.949,> 10 µM,0.678,2.37 µM,0.979,> 20 µM,0.894,> 20 µM,0.982,> 1.02 µM
"G-292 Clone A141B1 (osteosarcoma, adherent)",0.19,0.00203 µM,0.713,0.731 µM,0.773,6.59 µM,0.725,2.04 µM,0.696,0.798 µM,0.892,> 10 µM,0.961,> 5 µM,0.879,> 16 µM,0.932,> 10 µM,0.749,5.28 µM,0.973,> 20 µM,0.788,15.4 µM,0.961,> 1.02 µM
"G-361 (melanoma, adherent)",0.231,0.00552 µM,0.777,0.769 µM,0.348,0.242 µM,0.87,4.35 µM,0.93,> 2.56 µM,0.964,> 10 µM,0.988,> 5 µM,0.986,> 16 µM,0.965,> 10 µM,0.988,> 10.2 µM,0.988,> 20 µM,0.866,16.6 µM,0.973,> 1.02 µM
"G-401 (kidney, adherent)",0.178,0.00303 µM,0.764,0.798 µM,0.342,0.216 µM,0.881,> 5 µM,0.983,> 2.56 µM,0.982,> 10 µM,0.984,> 5 µM,0.83,11.4 µM,0.952,> 10 µM,0.798,5.44 µM,0.984,> 20 µM,0.768,8.2 µM,0.979,> 1.02 µM
"GMS-10 (glioma, adherent)",0.982,> 0.512 µM,0.674,0.381 µM,0.624,1.37 µM,0.904,> 5 µM,0.987,> 2.56 µM,0.953,> 10 µM,0.988,> 5 µM,0.988,> 16 µM,0.972,> 10 µM,0.935,> 10.2 µM,0.986,> 20 µM,0.988,> 20 µM,0.988,> 1.02 µM
"H2369 (mesothelioma, adherent)",0.081,< 0.002 µM,0.35,0.0473 µM,0.689,2.15 µM,0.788,2.28 µM,0.985,> 2.56 µM,0.972,> 10 µM,0.985,> 5 µM,0.956,> 16 µM,0.978,> 10 µM,0.931,> 10.2 µM,0.98,> 20 µM,0.969,> 20 µM,0.983,> 1.02 µM
"H2373 (mesothelioma, adherent)",0.438,0.0207 µM,0.622,0.296 µM,0.682,2.31 µM,0.819,3.84 µM,0.974,> 2.56 µM,0.98,> 10 µM,0.983,> 5 µM,0.842,15.8 µM,0.977,> 10 µM,0.797,6.32 µM,0.981,> 20 µM,0.93,> 20 µM,0.983,> 1.02 µM
"H2461 (mesothelioma, adherent)",0.376,0.0133 µM,0.833,1.76 µM,0.715,3 µM,0.904,> 5 µM,0.983,> 2.56 µM,0.862,> 10 µM,0.982,> 5 µM,0.921,> 16 µM,0.977,> 10 µM,0.939,> 10.2 µM,0.979,> 20 µM,0.983,> 20 µM,0.982,> 1.02 µM
"H2595 (mesothelioma, adherent)",0.533,0.0409 µM,0.715,0.656 µM,0.771,5.42 µM,0.92,> 5 µM,0.951,> 2.56 µM,0.769,5.34 µM,0.965,> 5 µM,0.914,> 16 µM,0.947,> 10 µM,0.854,> 10.2 µM,0.976,> 20 µM,0.981,> 20 µM,0.974,> 1.02 µM
"H2731 (mesothelioma, adherent)",0.376,0.0138 µM,0.646,0.337 µM,0.746,3.55 µM,0.941,> 5 µM,0.984,> 2.56 µM,0.865,> 10 µM,0.98,> 5 µM,0.795,8.67 µM,0.979,> 10 µM,0.89,> 10.2 µM,0.977,> 20 µM,0.756,7.76 µM,0.984,> 1.02 µM
"H2795 (mesothelioma, adherent)",0.753,0.169 µM,0.953,> 2 µM,0.696,2.2 µM,0.977,> 5 µM,0.987,> 2.56 µM,0.983,> 10 µM,0.969,> 5 µM,0.579,1.64 µM,0.884,> 10 µM,0.735,2.96 µM,0.984,> 20 µM,0.969,> 20 µM,0.98,> 1.02 µM
"H2869 (mesothelioma, adherent)",0.23,0.00424 µM,0.837,1.82 µM,0.729,3.33 µM,0.965,> 5 µM,0.898,> 2.56 µM,0.912,> 10 µM,0.974,> 5 µM,0.764,7.17 µM,0.984,> 10 µM,0.613,1.41 µM,0.976,> 20 µM,0.971,> 20 µM,0.966,> 1.02 µM
"H3118 (head and neck, adherent)",0.178,0.00306 µM,0.799,1.07 µM,0.617,1.35 µM,0.854,4.55 µM,0.921,> 2.56 µM,0.851,8.79 µM,0.978,> 5 µM,0.816,9.97 µM,0.945,> 10 µM,0.824,6.88 µM,0.978,> 20 µM,0.782,9.22 µM,0.978,> 1.02 µM
